According to PubChem BioAssay AID1768 (National Center for Advancing Translational Sciences (NCATS), 2009):
Among all 270,000 compounds or so, about 620 (0.23%) were called active. The inconclusive results got no clear call from the source; some entries with a clear call stand among them for comparison. The call rests on the fitted dose curve; in most records, active means well fitted inhibition curve with a large enough effect in the polarisation, with a control signal flat (not every such curve was filed as active); inconclusive means small, poorly fitted or top-dose-only effect, or effect the other way, or a change in a side signal; inactive means no such curve, though single readings can be large or run the other way; the % refers to the polarisation. Potencies of inconclusive entries are doubtful fits and often do not repeat. “Side channel” marks fits to a control or component signal instead of the main read-out.

Target: Menin (Homo sapiens) (UniProt O00255)
Assay: qHTS Assay for Inhibitors Targeting the Menin-MLL Interaction in MLL Related Leukemias: Competition With Texas Red Labeled MLL-derived Mutant Peptide; on FP activity change, negative = inhibition: % of control where 0% means no effect
Details: fluorescence polarization; FP activity change, negative = inhibition: at 61.6 µM (top of the series)
Potency means the concentration at half of the fitted maximal effect; tags describe the fitted curve by direction and shape or compound fluorescence and quenching.

Sequence of UniProt O00255 (O00255 whole entry, looked up): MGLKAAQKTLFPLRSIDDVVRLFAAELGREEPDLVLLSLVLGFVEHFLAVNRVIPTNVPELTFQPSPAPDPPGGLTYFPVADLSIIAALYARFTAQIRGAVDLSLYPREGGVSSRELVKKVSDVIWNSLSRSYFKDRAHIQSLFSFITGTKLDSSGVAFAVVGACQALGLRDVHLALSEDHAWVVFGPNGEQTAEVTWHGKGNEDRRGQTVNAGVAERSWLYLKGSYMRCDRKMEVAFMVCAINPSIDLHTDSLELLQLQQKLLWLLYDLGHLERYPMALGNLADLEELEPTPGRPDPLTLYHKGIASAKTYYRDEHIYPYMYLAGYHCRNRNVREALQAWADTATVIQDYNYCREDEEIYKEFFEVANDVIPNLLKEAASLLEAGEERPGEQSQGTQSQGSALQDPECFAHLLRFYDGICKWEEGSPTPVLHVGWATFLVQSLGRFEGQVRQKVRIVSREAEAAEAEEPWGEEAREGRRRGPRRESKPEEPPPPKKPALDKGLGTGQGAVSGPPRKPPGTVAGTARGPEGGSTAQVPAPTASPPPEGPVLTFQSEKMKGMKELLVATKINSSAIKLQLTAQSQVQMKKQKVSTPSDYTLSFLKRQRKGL

Potency, inactive:
CCC1CCc2c(sc(NC(=O)C3c4ccccc4Oc4ccccc43)c2C(N)=O)C1 (configuration not stated)
O=C(c1cc2cc(Cl)ccc2[nH]1)N1CCN(c2ccc(F)cc2)CC1
CCOc1ccc(C(=O)NC(=S)Nc2ccccc2N2CCC(C)CC2)cc1[N+](=O)[O-]
Cc1nnc(SCC(=O)Nc2nccs2)n(N)c1=O
COc1ccc(/C=C/C(=O)NCCCN2CCCCCC2)cc1
Cn1cnnc1SCC(=O)c1ccc(O)c(O)c1
CC1CN(c2cc(-c3ccccc3)c3ccccc3n2)CC(C)O1 (configuration not stated)
CCOC(=O)N1CCN([N+]([O-])=NOc2cc(O/N=[N+](\[O-])N(CC)CC)c([N+](=O)[O-])cc2[N+](=O)[O-])CC1
CCOc1ccc(NC(=O)c2ccco2)c([N+](=O)[O-])c1
CC[C@@H](C)[C@@H](CO[C@@H](Cc1ccccc1)C(=O)N[C@@H](CCS(C)(=O)=O)C(=O)OC(C)C)NC[C@@H](N)CS
O=C1c2cccc3cccc(c23)C(=O)N1c1nncs1
CCOC(=O)N1CCC(NC(=O)c2cc3sccc3n2CC)CC1
COc1ccc(-c2cc(-c3ccccc3)nc(N3CCCC3)n2)cc1OC
COc1ccc(NC(=O)CSc2nc(N)c3cc4c(nc3n2)CCCC4)cc1

Potency, active:
Cc1ccc(/C=C/C2=CC3(C)CC2(C)C(c2ccc(C)cc2)CC3=O)cc1 (configuration not stated) 10 µM

Potency, inconclusive:
Cc1ccc(-n2cccc2/C=C2\C(=N)N3N=C(c4ccco4)SC3=NC2=O)cc1 10 µM [quencher, side channel, partial curve]
CS(=O)(=O)c1ccc2nc(NC(=O)Nc3ccc(Cl)c(Cl)c3)sc2c1 1.41 µM [quencher, side channel, partial curve]
O=C(CC1C(=O)N(c2ccc(Cl)cc2)C(=S)N1CCc1ccncc1)Nc1ccc(F)cc1 (configuration not stated) 8.91 µM [quencher, side channel, partial curve]
Cc1ccc(CO/N=C\Cc2snc(Sc3ncc(C(F)(F)F)cc3Cl)c2C#N)cc1 14.1 µM [quencher, side channel, partial curve]
COc1ccc(O)c(-c2cc(-c3cccs3)[nH]n2)c1 31.6 µM [quencher, side channel, single point]
CCCS(=O)(=O)N1CCCC(C(=O)NCCN(CC)c2ccccc2)C1 (configuration not stated) 8.91 µM [inhibitor, single point]
CN(C)CCn1c(SCc2ccccc2C#N)nc2c(sc3ccccc32)c1=O 15.8 µM [inhibitor, partial curve]
CC1Cc2ccccc2N1Cc1nc2cc(C(F)(F)F)ccc2c(=O)[nH]1 (configuration not stated) 39.8 µM [quencher, side channel, single point]
Cc1ccc(OCCCCNC2CCCC(C)C2C)c(C)c1 (configuration not stated) 15.8 µM [fluorescent, side channel, partial curve]
CCOC(=O)C1=C(N)Oc2ccc3ccccc3c2C1c1ccc(O)cc1 (configuration not stated) 31.6 µM [quencher, side channel, single point]
COc1cccc(C(=O)NC2CCCN(C3Cc4ccccc4C3)C2)c1OC (configuration not stated) 39.8 µM [inhibitor, single point]
NC(Cc1ccc(O)c(O)c1)C(=O)O (configuration not stated) 11.2 µM [quencher, side channel, partial curve]
CNC(=O)C1(C(F)(F)F)C/C(=C\CCO)CCCO1 (configuration not stated) 8.91 µM [inhibitor, single point]
CCCc1cc(=O)oc2cc(C)cc(OCC(=O)NCc3cccnc3)c12 44.7 µM [inhibitor, partial curve]
COc1ccc(Br)cc1/C=C1\Oc2ccccc2NC1=O 35.5 µM [fluorescent, side channel, single point]
COc1ccc(C(=O)Oc2ccc3ccc(=O)oc3c2)cc1OC 31.6 µM [fluorescent, single point]
Clc1ccc(CN2CCC(c3ccccc3)CC2)cc1 8.91 µM [inhibitor, full curve]
O=C(Cn1nnc(-c2ccccc2)n1)N/N=C/c1ccc(-c2ccc(Cl)cc2)o1 35.5 µM [inhibitor, single point]
CCOc1ccccc1N1CCN(c2nc(N)c(C#N)c(CC#N)c2C#N)CC1 28.2 µM [quencher, side channel, single point]
Cc1cc(C(F)(F)F)nc(SCC(=O)Nc2nccs2)n1 31.6 µM [inhibitor, single point]
C=CCn1c(=O)/c(=C/c2ccc(C)o2)s/c1=C(/C#N)C(=O)c1ccccc1 28.2 µM [fluorescent, side channel, partial curve]
CCCCc1ncc(CN2CCN(Cc3ccc(C)cc3)C(CCO)C2)[nH]1 (configuration not stated) 28.2 µM [inhibitor, partial curve]
COc1cccc(C2=Nn3c(nnc3-c3ccc(OC)c(OC)c3)SC2)c1 0.631 µM [inhibitor, full curve, poor fit]
COc1ccc(/C=N/NC(=O)c2nn(-c3ccccc3)c(=O)c3c(N)scc23)cc1 17.8 µM [quencher, side channel, single point]
CCCN1Cc2cccc(C(=O)NCCc3cccc(C)c3)c2C1=O 20 µM [fluorescent, side channel, partial curve]
COc1ccccc1N1C(C)=CC(=C(C#N)c2nc3ccccc3s2)C=C1C 31.6 µM [quencher, side channel, partial curve]
c1ccc(Nc2nc(-c3cccs3)cs2)nc1 28.2 µM [quencher, side channel, partial curve]
CC1=CC(C)(C)Nc2ccccc21 39.8 µM [fluorescent, side channel, single point]
COc1ccc(C(C)=O)cc1COc1cccc2cccnc12 20 µM [fluorescent, side channel, partial curve]
CCc1c(C)c(C#N)c2nc3ccccc3n2c1NCCOC 5.01 µM [inhibitor, single point]
CC(C)=CCC[C@](C)(O)C1CC=C(C)CC1 (some centres not stated) 0.562 µM [inhibitor, full curve, poor fit]
O=c1c(/C=N/OCc2ccc(Cl)cc2Cl)c[nH]n1-c1cccc(Cl)n1 31.6 µM [quencher, side channel, single point]
Cc1cc(NC(=O)/C=C/c2ccccc2Cl)n(-c2nc3ccccc3[nH]2)n1 39.8 µM [inhibitor, single point]
CCOC(=O)N1CCN(S(=O)(=O)c2ccc(C(=O)NNc3nc4ccc(Cl)cc4s3)cc2)CC1 10 µM [quencher, side channel, partial curve]
CCOc1ccc2nc(NC(=O)CCC(=O)c3cccs3)sc2c1 25.1 µM [quencher, side channel, single point]
Cc1cc(NC(=O)c2cc([N+](=O)[O-])cc([N+](=O)[O-])c2C)no1 39.8 µM [quencher, side channel, single point]
CN(CCCNC(=O)c1cccn2c(=O)c3ccccc3nc12)Cc1ccccc1 15.8 µM [inhibitor, partial curve]
Cc1ccc(NC(=O)Cn2c(/C=C/c3ccccc3)nc3ccccc32)cc1C 39.8 µM [inhibitor, single point]
N#CC1=C2SCN(Cc3ccco3)CN2C(=O)CC1c1cccc2ccccc12 (configuration not stated) 31.6 µM [quencher, side channel, single point]
CN1CCN(C(=O)C2=C[C@H](C3CCCCC3)C[C@H](OCc3ccc(CO)cc3)O2)CC1 17.8 µM [fluorescent, side channel, partial curve]
CCc1ccc(C(c2c(C)nn(-c3ccccc3)c2N)c2c(C)nn(-c3ccccc3)c2N)cc1 3.16 µM [fluorescent, side channel, partial curve, poor fit]
O=C(Nc1ccc(Cl)cc1)Nc1ccccc1C(=O)O 14.1 µM [quencher, side channel, partial curve]
Cc1cc(NC(=O)CSc2nnc(-c3ccc(Br)o3)n2Cc2ccccc2)no1 2.82 µM [fluorescent, side channel, partial curve, poor fit]
COc1ccc(Nc2nccc(-c3cccc(N)c3)n2)cc1 10 µM [quencher, side channel, partial curve]
O=C(COC(=O)c1ccc([N+](=O)[O-])s1)NC(=O)NCc1ccccc1 31.6 µM [quencher, side channel, single point]

FP activity change, negative = inhibition, inactive:
COC(=O)C1C(C)OC(=O)NC1c1ccccc1 (configuration not stated) 7.64% [at 11.7 µM]
COC(=O)C1=C(C(=O)OC)[C@@H]2N(C)c3ccc(OC)cc3[C@@]23C[C@@H](C(=O)OC)N(S(=O)(=O)c2ccc(C(F)(F)F)cc2)C3=N1 -0.253% [at 11.7 µM]
